Laboratory results published in ChEMBL document CHEMBL4888484, “Replenishing the malaria drug discovery pipeline: Screening and hit evaluation of the MMV Hit Generation Library 1 (HGL1) against asexual blood stage Plasmodium falciparum ,using a nano luciferase reporter read-out” (2022).
Screen size: about 150,000 compounds; about 540 (0.36%) showed an effect of 50% or more. The list shows a part of the results.

What follows are compounds tested on Plasmodium falciparum (assay: Primary screen in NF54 nanoGlo assay, in single point, at 2uM, 72h; a lower Z score goes with more inhibition). Settings: timepoint 72 hour.
Type: functional, Erythrocyte
In the case of `CCOc1ncccc1C(=O)Nc1ccc2c(c1)OCCO2`, the “% Inhibition” value is reported as -15% and the Z score is reported as 2.65.
With `Cn1cc(C(=O)NCCCc2ccccc2)nn1` the “% Inhibition” value was -5% and the Z score was 0.69.
With `CCOC[C@@H](O)CN(Cc1ccc(F)cc1)Cc1c(-c2ccccc2)noc1N1CCOCC1` the “% Inhibition” value was -6% and the Z score was 0.83.
`CCCc1c(-c2ccccc2)nc(N2CCN(Cc3ccc4c(c3)OCO4)CC2)[nH]c1=O` was tested, and the “% Inhibition” value was -9% and the Z score was 1.24.
In the case of `O=C(NCCc1ccccn1)c1coc(CN(Cc2ccc3c(c2)OCO3)Cc2ccc3c(c2)OCO3)n1`, the “% Inhibition” value is reported as -18% and the Z score is reported as 1.68.
With `Cc1cc(N2CCn3nc(CN4C[C@@H]5CCC[C@H](C4)C(=O)N5)cc3C2)nc(N)n1` the “% Inhibition” value was -8% and the Z score was 1.26.
`COc1cccc(C(=O)N2CCN(C(=O)Cc3ccc(Cl)c(Cl)c3)CC2)c1` was tested, and the “% Inhibition” value was -1% and the Z score was 0.14.
For `CC(C)n1ccc(-c2nnc(NC(=O)C(C)(C)C)o2)n1`, the “% Inhibition” value was -14% and the Z score was 2.1.
In the case of `CCc1nnsc1C(=O)Nc1ccc2oc(C)nc2c1`, the “% Inhibition” value is reported as -6% and the Z score is reported as 0.82.
With `CCc1n[nH]c(NS(=O)(=O)c2ccc3c(c2)OCCO3)n1` the “% Inhibition” value was 10% and the Z score was -1.32.
With `COC1(c2nccn2C)CCN(c2nc3cccc(F)c3o2)CC1` the “% Inhibition” value was -6% and the Z score was 1.12.
For `CN1[C@@H](c2ccccc2Cl)[C@@H](C(=O)N2CCC(CO)CC2)C[C@@]1(C)C(=O)O`, the “% Inhibition” value was 2% and the Z score was -0.18.
With `CCCC(=O)N(CCC)CC(=O)N(Cc1ccco1)C[C@H]1CCCO1` the “% Inhibition” value was -11% and the Z score was 1.51.
`CCOC(=O)[C@@H](NC(C)=O)C(=O)Nc1c(C)cccc1C` was tested, and the “% Inhibition” value was -3% and the Z score was 0.41.
For `c1ccc(CCCN2CCCN(Cc3ncc[nH]3)CC2)cc1`, the “% Inhibition” value was -6% and the Z score was 1.2.
`N#Cc1ncoc1N1CCC(C(N)=O)CC1` was tested, and the “% Inhibition” value was -1% and the Z score was 0.11.
`Cn1nccc1C(=O)N1CCC2(CCCCO2)CC1` was tested, and the “% Inhibition” value was -5% and the Z score was 0.83.
For `Cc1ccc(-n2nc(NC(=O)NCCc3cccnc3C)cc2C)cc1`, the “% Inhibition” value was -3% and the Z score was 0.51.
For `Cc1cc(NC(=O)N(C)Cc2ccco2)ccc1OC1CCOCC1`, the “% Inhibition” value was -5% and the Z score was 0.91.
For `CCOc1cc(CNC(=O)c2cccc(NC(=O)c3nnc(C)s3)c2)cc(OCC)c1OCC`, the “% Inhibition” value was -6% and the Z score was 0.84.
With `CS(=O)(=O)C1(CNS(=O)(=O)CC23CCC(CC2)CC3)CC1` the “% Inhibition” value was -6% and the Z score was 0.6.
`Cc1ccsc1-c1cnc2n1CCOC2` was tested, and the “% Inhibition” value was -2% and the Z score was 0.28.
With `N[C@H]1CCCCc2cc(Br)ccc21` the “% Inhibition” value was -4% and the Z score was 0.58.
For `COc1ccc(-c2c(C)nn(C)c2NC(=O)CCn2nc(C)c(C(C)=O)c2C)cc1`, the “% Inhibition” value was -10% and the Z score was 1.82.
In the case of `Cc1n[nH]c(C2CN(C3CCc4ccccc4NC3=O)CCO2)n1` (configuration not stated), the “% Inhibition” value is reported as -8% and the Z score is reported as 0.87.
In the case of `O=C(c1nc2sccn2c1CN(CCO)Cc1cccs1)N1CCCC1`, the “% Inhibition” value is reported as -2% and the Z score is reported as 0.36.
With `CCOCCCCNC(=O)N1CCCC2CCCC21` (configuration not stated) the “% Inhibition” value was -2% and the Z score was 0.22.
With `N#CC1(NC(=O)c2ccc3c(c2O)CCCC3)CCCC1` the “% Inhibition” value was 9% and the Z score was -1.06.
In the case of `Cc1ccc(-c2ccccc2-c2cn(Cc3cc(O)ncn3)nn2)o1`, the “% Inhibition” value is reported as -6% and the Z score is reported as 1.02.
In the case of `Cc1cc(C(=O)NC2CC(F)(F)C2)oc1C`, the “% Inhibition” value is reported as -5% and the Z score is reported as 0.9.
With `O=C(NCCc1ccccc1)NC1CCCC1` the “% Inhibition” value was -11% and the Z score was 2.11.
In the case of `Cc1ccsc1C(=O)N(CCN(C)C)C1CCOCC1`, the “% Inhibition” value is reported as -4% and the Z score is reported as 0.66.
For `CCCc1cc(-c2nc(-c3ccc4[nH]cnc4c3)no2)no1`, the “% Inhibition” value was -8% and the Z score was 1.62.
In the case of `CCN(CC)C(=O)CN1CCCN(c2cc(OC)ncn2)CC1`, the “% Inhibition” value is reported as 10% and the Z score is reported as -1.26.
With `Cc1c(Br)cncc1NC(=O)C[C@H]1CCCCO1` the “% Inhibition” value was 3% and the Z score was -0.65.
For `CCc1ccc(Cn2nc(CC(N)=O)nc2-c2cnn3ccn(C)c23)cc1`, the “% Inhibition” value was -24% and the Z score was 2.21.
With `CN1CCCN(CC(=O)N2C[C@@H]3CC[C@@H](C3)C2)CC1` the “% Inhibition” value was -12% and the Z score was 2.
With `Cc1ccc2c(c1)C(NC(=O)NCCC1CCCCO1)CO2` (configuration not stated) the “% Inhibition” value was -7% and the Z score was 0.84.
For `CC(C)Oc1cccc(-c2c[nH]c([C@H]3CC(=O)N(C4CC4)C3)n2)c1`, the “% Inhibition” value was -7% and the Z score was 1.11.
`CC(C)c1nccc(N2CCC3CCC(C2)S3(=O)=O)n1` (configuration not stated) was tested, and the “% Inhibition” value was -6% and the Z score was 1.23.
With `CC1(C)C(NCC2CCS(=O)(=O)C2)CC1OCc1ccccc1` (configuration not stated) the “% Inhibition” value was -3% and the Z score was 0.39.
In the case of `Oc1cccc2c1C[C@@H](NCc1ccncc1Cl)C2`, the “% Inhibition” value is reported as -5% and the Z score is reported as 0.48.
In the case of `Cc1cccc(CNC(=O)c2cc(C)[nH]c(=O)c2)n1`, the “% Inhibition” value is reported as -6% and the Z score is reported as 1.17.
With `Cc1cc(Cn2cc(C(c3ccccc3)c3ccccc3)nn2)no1` the “% Inhibition” value was 21% and the Z score was 0.53.
With `CN(C[C@H]1CCCCO1)C(=O)c1ccc2nc(-c3ccc(F)cc3)cn2c1` the “% Inhibition” value was -10% and the Z score was 1.34.
`O=C(Nc1ccc2c(c1)OCO2)c1csc(C2CC2)n1` was tested, and the “% Inhibition” value was 0% and the Z score was -0.06.
For `CCN1CCN(C(=O)Cn2c(C)cc(=O)n3nc(-c4cccc(C)c4)nc23)CC1`, the “% Inhibition” value was -4% and the Z score was 0.51.
In the case of `CCc1nn(C)c(Cl)c1CN1CCN(c2ccnc3nncn23)CC1`, the “% Inhibition” value is reported as -4% and the Z score is reported as 0.4.
In the case of `CC(C)c1nn(C)c(Cl)c1C(=O)NC[C@@H](CO)C1CCCCC1`, the “% Inhibition” value is reported as -14% and the Z score is reported as 2.45.
For `CO[C@@H](C)c1nc(Cc2noc(Cc3ccc(O)cc3)n2)cs1`, the “% Inhibition” value was -13% and the Z score was 1.62.
For `CC(C)(C)OC(=O)[C@@H]1CCCCN1Cc1cn(CCN2CCCC2=O)nn1`, the “% Inhibition” value was -4% and the Z score was 0.62.
For `c1ccc2nc(Nc3cn[nH]c3)cnc2c1`, the “% Inhibition” value was -10% and the Z score was 1.6.
`CCN(C(=O)Cn1c(=O)n(-c2cc(C)cc(C)c2)c(=O)c2ccccc21)c1cccc(C)c1` was tested, and the “% Inhibition” value was 30% and the Z score was -3.42.
`CCCc1nccn1-c1cccc(-c2nnc(C)s2)c1` was tested, and the “% Inhibition” value was -8% and the Z score was 1.62.
For `O=C(CCn1cccn1)NC1CNCCC1c1ccc(F)c(F)c1` (configuration not stated), the “% Inhibition” value was -6% and the Z score was 0.84.
`COc1ccccc1OCCC(=O)N1CC2CN(Cc3ccccc3)CC2C1` (configuration not stated) was tested, and the “% Inhibition” value was -3% and the Z score was 0.37.
